Experimental data taken from PubChem BioAssay AID504339 (National Center for Advancing Translational Sciences (NCATS), 2011).
Screen size: about 390,000 compounds; about 17,000 (4.4%) were called active. This list was built around the results that the source calls inconclusive (neither active nor inactive); the mix of calls is not that of the screen. Calls come from the whole dose curve; as a rule, active = well fitted inhibition curve with a large enough effect; inconclusive = small, poorly fitted or top-dose-only effect; inactive = no such curve, though single readings can be large or run the other way. A potency beside an inconclusive call is a rough fit, not a confirmed value.

What follows are compounds tested against Lysine-specific demethylase 4A (Homo sapiens) (UniProt O75164) (assay: qHTS Assay for Inhibitors of JMJD2A-Tudor Domain). Conditions: AlphaScreen JMJD2A-Tudor / H3K4me3 peptide binding; series mostly up to 114 µM.
Note: nearly all actives have a fitted effect of over 50% in size.
Potency is the fitted concentration of half-maximal effect; tags give direction and shape of the fitted curve.

Sequence of UniProt O75164 (O75164 whole entry, looked up, the tested form may be a part): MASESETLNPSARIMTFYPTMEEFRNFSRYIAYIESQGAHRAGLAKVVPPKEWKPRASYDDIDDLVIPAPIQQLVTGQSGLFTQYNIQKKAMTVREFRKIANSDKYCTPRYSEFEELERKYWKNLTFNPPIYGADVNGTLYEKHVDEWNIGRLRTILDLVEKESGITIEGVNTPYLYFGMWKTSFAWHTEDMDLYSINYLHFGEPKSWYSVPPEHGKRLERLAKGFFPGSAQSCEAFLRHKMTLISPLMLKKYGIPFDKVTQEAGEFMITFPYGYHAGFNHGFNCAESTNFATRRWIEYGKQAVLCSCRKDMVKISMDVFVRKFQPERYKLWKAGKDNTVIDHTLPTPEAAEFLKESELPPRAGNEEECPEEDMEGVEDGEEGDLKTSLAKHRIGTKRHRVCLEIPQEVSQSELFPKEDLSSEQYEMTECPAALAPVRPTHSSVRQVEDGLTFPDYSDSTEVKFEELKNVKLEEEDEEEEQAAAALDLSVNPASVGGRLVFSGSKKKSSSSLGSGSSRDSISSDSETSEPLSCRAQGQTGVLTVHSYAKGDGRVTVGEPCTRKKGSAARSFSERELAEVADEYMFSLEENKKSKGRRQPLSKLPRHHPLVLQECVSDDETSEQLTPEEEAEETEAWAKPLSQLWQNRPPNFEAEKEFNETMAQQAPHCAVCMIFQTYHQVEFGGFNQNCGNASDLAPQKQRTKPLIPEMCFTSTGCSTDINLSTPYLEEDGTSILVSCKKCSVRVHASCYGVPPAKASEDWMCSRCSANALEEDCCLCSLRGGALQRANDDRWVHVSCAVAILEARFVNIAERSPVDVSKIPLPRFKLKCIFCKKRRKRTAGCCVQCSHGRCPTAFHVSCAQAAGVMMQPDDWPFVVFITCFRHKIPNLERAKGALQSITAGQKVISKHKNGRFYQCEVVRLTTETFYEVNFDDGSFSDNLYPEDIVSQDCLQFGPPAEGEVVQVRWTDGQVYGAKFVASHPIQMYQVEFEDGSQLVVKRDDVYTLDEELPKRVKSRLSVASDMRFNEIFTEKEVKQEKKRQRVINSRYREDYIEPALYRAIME

SMILES | Potency
CCOc1ccccc1NC(=S)C(=C([O-])c1ccc2c(c1)OCCO2)[n+]1ccc(CC)cc1 | inconclusive: 50.1 µM [inhibitor, partial curve]
O=C(CN1C(=O)/C(=C\c2cccc(Br)c2)Oc2ccccc21)NCCCN1CCOCC1 | active: 44.7 µM
OC(c1nc2ccccc2[nH]1)C(O)C(O)C(O)c1nc2ccccc2[nH]1 (centres undefined) | inconclusive: 89.1 µM [inhibitor, single point]
Cc1nc(Nc2ccc(Cl)cc2)c2oc3ccccc3c2n1 | inconclusive: 17.8 µM [inhibitor, single point]
Cc1cccc(Nc2ccccc2C(=O)NCc2ccco2)c1C | inconclusive: 79.4 µM [inhibitor, partial curve]
COc1ccc(-c2cc(-c3ccccc3)c(C#N)c(S(C)(=O)=O)n2)cc1 | inconclusive: 79.4 µM [inhibitor, single point]
CC1(C)c2[nH]c3ccccc3c2C[C@@H]2C(=O)N(Cc3ccccc3)C(=O)N21 | inconclusive: 56.2 µM [inhibitor, partial curve]
C=CCn1c(COc2ccc(Cl)cc2)nnc1SCc1ccc(C#N)cc1 | inconclusive: 89.1 µM [inhibitor, partial curve]
COc1ccccc1CN1C(=O)CN(C2CCCCCC2)C(=O)C1c1ccc(C)cc1 (centres undefined) | inactive
COc1ccc(OC)c(Nc2nc(NCc3ccco3)c3ccccc3n2)c1 | active: 50.1 µM
CSc1ccc(CCNC(=O)CN2C(=O)c3cccnc3Oc3ccc(C)cc32)cc1 | inconclusive: 79.4 µM [inhibitor, partial curve]
CCN1C(=O)C2C(C1=O)N1C(c3ccccc3)C3C(=O)N(CC)C(=O)C3N1C2c1ccccc1 (centres undefined) | inactive
COc1cc(F)c(S(=O)(=O)N2CCN(S(=O)(=O)c3ccc(NC(C)=O)cc3)CC2)c(F)c1 | inactive
CCOc1cc(C(c2c(C)[nH][nH]c2=O)c2c(C)[nH][nH]c2=O)ccc1OCc1ccc([N+](=O)[O-])cc1 | inconclusive: 39.8 µM [inhibitor, partial curve]
O=C(O)c1cc(N/N=C/C=C/c2ccccc2[N+](=O)[O-])ccc1Cl | inconclusive: 50.1 µM [inhibitor, partial curve]
CCn1nc(CC(C)C)cc1C(=O)N1CCCC(Nc2ccc(F)cc2)C1 (centres undefined) | inactive
CCN(CCNC(=O)Nc1ccc(Cl)cc1)c1ccccc1 | inconclusive: 56.2 µM [inhibitor, partial curve]
Cc1cc(NC(=O)N(C)CCc2c(C)nn(C)c2C)ccc1Br | inactive
S=C(Nc1ccc(Cl)cc1)c1sc(N2CCCCC2)nc1N1CCOCC1 | inconclusive: 25.1 µM [inhibitor, partial curve]
COc1ccc(N=C2NN=C(c3c(C)[nH]c4ccccc34)CS2)cc1 | inconclusive: 44.7 µM [inhibitor, single point]
Cn1cc(C(=O)NCc2ccccc2)c(=O)c2cc(S(=O)(=O)N3CCOCC3)ccc21 | inconclusive: 39.8 µM [inhibitor, single point]
O=C(NCc1ccccc1)c1nc[nH]c1C(=O)N1CCN(c2ccccc2)CC1 | inactive

SMILES | Potency
O=C(NN=C1CCCC1)c1ccccc1O | inconclusive: 39.8 µM [inhibitor, single point]
COc1ccccc1N1CCN(Cc2nc3ccsc3c(=O)[nH]2)CC1 | active: 3.55 µM
Cc1cccc(N2CCN(Cc3nc(-c4ccccc4Cl)oc3C)CC2)n1 | inconclusive: 89.1 µM [inhibitor, partial curve]
CCCCC(=Nc1ccc(N)cc1)C1=C(O)C(C(=O)OC)C(C)(C)CC1=O (centres undefined) | inconclusive: 50.1 µM [inhibitor, partial curve]
COCCNS(=O)(=O)c1cc(C)c(C)cc1C | inactive
C=CCn1c(SCC(C)=O)nc2scc(-c3ccco3)c2c1=O | active: 50.1 µM
CC1CCN(CC(=O)Nc2ccc(N3CCCCCC3)cc2)CC1 | active: 20 µM
O=C1c2[nH]nc(-c3ccccc3O)c2C(c2cccc(Cl)c2)N1Cc1cccnc1 (centres undefined) | inconclusive: 50.1 µM [inhibitor, partial curve, poor fit]
CCOc1ccc(CCNC(=O)c2cn(CC)c3ccc(S(=O)(=O)N4CCCCCC4)cc3c2=O)cc1OCC | inconclusive: 11.2 µM [inhibitor, full curve]
N#Cc1c(-c2cccs2)cc(-c2ccccn2)nc1N | inconclusive: 89.1 µM [inhibitor, single point]
CCOc1ncccc1C(=O)Nc1ccc(F)cc1 | inconclusive: 35.5 µM [inhibitor, partial curve]
CCc1ccccc1NC(=O)CCS(=O)(=O)c1ccc(Br)cc1 | inconclusive: 56.2 µM [inhibitor, partial curve]
O=C(/C=C/c1ccco1)c1ccc(NC(=O)C23CC4CC(CC(C4)C2)C3)cc1 | inconclusive: 25.1 µM [inhibitor, single point]
Cc1cccc2c1N(CCOc1ccccc1Cl)C(=O)C2=O | inconclusive: 50.1 µM [inhibitor, partial curve]
CCC1(c2ccc(F)cc2)NC(=O)N(CC(=O)Nc2ccccc2C)C1=O (centres undefined) | active: 70.8 µM
O=C(Nc1nc(=S)ss1)c1ccc(Cl)cc1Cl | inactive
O=C(NC(NC(=S)Nc1ccc(Cl)cc1Cl)C(Cl)(Cl)Cl)c1cccc([N+](=O)[O-])c1 (centres undefined) | inconclusive: 44.7 µM [inhibitor, partial curve]
Oc1ccc(Nc2nc3ccccc3nc2Nc2ccc(O)cc2)cc1 | inconclusive: 14.1 µM [inhibitor, partial curve]
CC(C)=C1C(=O)NN(c2cccc(Cl)c2)C1=O | inactive
COc1ccc(OC)c(NS(=O)(=O)c2ccc3[nH]c4c(c3c2)CCCCC4)c1 | inconclusive: 31.6 µM [inhibitor, partial curve]
Cc1[nH]c2ccc(C(=O)NCCCN3CCCCCC3)cc2c1C | inconclusive: 56.2 µM [inhibitor, partial curve]
Cc1ccc(OCC(=O)N/N=C/c2cccnc2)cc1C | inactive
